Out of some 310,000 compounds screened, about 14,000 (4.5%) showed an effect of 50% or more. The effect is printed as a negative number. The list shows a part of the results.
target: human ether-à-go-go-related gene (hERG) potassium channel (human, UniProt Q12809); assay: primary screen, population patch clamp on CHO cells stably expressing hERG
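Also: peak tail current of the secondary pulse compared with the same well before compound.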

Sequence of human ether-à-go-go-related gene (hERG) potassium channel (Q12809 whole entry, looked up): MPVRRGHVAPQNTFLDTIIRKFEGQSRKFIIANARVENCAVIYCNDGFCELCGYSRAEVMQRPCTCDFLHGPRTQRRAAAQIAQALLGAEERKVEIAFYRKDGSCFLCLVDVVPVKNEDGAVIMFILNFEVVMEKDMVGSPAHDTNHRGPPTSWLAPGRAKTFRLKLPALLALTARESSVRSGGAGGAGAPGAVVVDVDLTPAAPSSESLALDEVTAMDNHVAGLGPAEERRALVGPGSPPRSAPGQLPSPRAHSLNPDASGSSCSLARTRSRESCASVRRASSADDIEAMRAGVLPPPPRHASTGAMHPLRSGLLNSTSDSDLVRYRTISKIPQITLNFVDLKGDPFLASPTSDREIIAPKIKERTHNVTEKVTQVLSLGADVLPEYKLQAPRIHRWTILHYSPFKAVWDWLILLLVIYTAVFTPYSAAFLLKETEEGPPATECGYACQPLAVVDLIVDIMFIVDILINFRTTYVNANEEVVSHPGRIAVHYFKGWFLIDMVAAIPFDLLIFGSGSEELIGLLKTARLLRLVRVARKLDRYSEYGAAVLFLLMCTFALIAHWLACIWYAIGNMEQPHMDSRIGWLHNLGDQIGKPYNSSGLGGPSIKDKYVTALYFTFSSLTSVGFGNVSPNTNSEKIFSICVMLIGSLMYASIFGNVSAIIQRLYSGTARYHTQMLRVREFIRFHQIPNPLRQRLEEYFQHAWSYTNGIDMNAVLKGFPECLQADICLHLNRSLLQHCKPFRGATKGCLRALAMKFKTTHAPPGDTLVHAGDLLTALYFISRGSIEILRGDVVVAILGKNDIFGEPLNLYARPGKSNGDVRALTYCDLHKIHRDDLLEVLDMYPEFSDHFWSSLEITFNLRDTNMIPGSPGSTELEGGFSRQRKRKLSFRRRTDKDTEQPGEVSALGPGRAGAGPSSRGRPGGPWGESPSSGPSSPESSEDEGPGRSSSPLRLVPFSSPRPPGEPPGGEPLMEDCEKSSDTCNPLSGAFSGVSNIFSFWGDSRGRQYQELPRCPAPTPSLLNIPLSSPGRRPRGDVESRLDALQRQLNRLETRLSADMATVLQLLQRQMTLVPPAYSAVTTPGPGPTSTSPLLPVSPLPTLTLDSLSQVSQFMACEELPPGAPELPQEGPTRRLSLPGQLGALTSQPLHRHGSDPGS

| SMILES | hERG current change (%, negative = inhibition) at 10uM [%] |
| --- | --- |
| COc1ccc(N2CCN(CC(=O)N3c4ccccc4CC3C)CC2)cc1.O=C(O)C(=O)O (centres unmarked) | -21.3 |
| CCc1sc(C(=O)Nc2cccc(-n3cnnn3)c2)cc1C | -4.05 |
| Cc1ccc(N(CC(=O)NCC2CCCO2)C(=O)CCC(=O)Nc2cc(C)on2)cc1 (centres unmarked) | 9.1 |
| NC(=O)c1c(NC(NC(=O)c2ccco2)C(=O)c2ccc(Cl)cc2)sc2c1CCCC2 (centres unmarked) | -20.4 |
| O=C(COC(=O)c1ccncc1)Nc1ccccc1 | 12.9 |
| C=Cn1cc[n+](CC(=O)C(C)(C)C)c1.[Br-] | 8.71 |
| COc1ccc(C2CC(c3cccs3)=NN2C(=O)CSc2nc(=O)n3ccccc3n2)cc1 (centres unmarked) | -57.5 |
| O=C(Nc1ccc(Cl)c(S(=O)(=O)N2CCOCC2)c1)c1cn2ccccc2n1 | 11.9 |
| CCN(CC)C(=O)c1ccc(Nc2nnc(-c3ccc(O)cc3)c3ccccc23)cc1 | -1.49 |
| Cc1cc2occ(CC(=O)NC3CCCc4ccccc43)c2cc1C (centres unmarked) | 13.5 |
| Cn1c(N2CCCCC2)nc2c1c(=O)[nH]c(=O)n2C | -13.1 |
| C=CCn1c(CNC(=O)c2ccco2)nnc1SCC(=O)Nc1cccc(Br)c1 | -47.3 |
| CCOC(=O)C1CCCN(C(=O)CSc2ccc(NC(C)=O)cc2)C1 (centres unmarked) | 14.9 |
| CCOC(=O)c1c(C)[nH]c(C(=O)COC(=O)C(C)N2C(=O)C3CCCCC3C2=O)c1C (centres unmarked) | 3.57 |
| O=C(CC1C(=O)NCCN1Cc1ccc(Cl)c(F)c1)NCC1CCOCC1 (centres unmarked) | 9.07 |
| CN(C(=O)c1ccc(NC(=O)Cc2cccc([N+](=O)[O-])c2)cc1)C1CC1 | -10.7 |
| COc1cccc(N2CCN(c3ccc4nnc(CCC(=O)Nc5ncccc5C)n4n3)CC2)c1 | 0.983 |
| O=C(C1CCN(Cc2ccc(Cl)cc2)CC1)N1CCN(C(c2ccccc2)c2ccccc2)CC1 | 11.8 |
| Nc1nc(-c2ccc(Cl)cc2)c(N=Nc2ccc(S(=O)(=O)N3CCOCC3)cc2)s1 | -1.17 |
| Cc1cccc(C)c1NC(=O)CS(=O)CC(=O)NC1CCN(Cc2ccccc2)CC1 (centres unmarked) | 10.7 |
| CCOc1ccc(NC(=S)N2C3CCCC2CC(NC(=O)C2CC2)C3)cc1 (centres unmarked) | -8.64 |
| COc1ccccc1C(=O)NCCCCNC(=O)c1ccccc1OC | 7.51 |

| SMILES | hERG current change (%, negative = inhibition) at 10uM [%] |
| --- | --- |
| O=[N+]([O-])c1ccccc1Oc1ncccc1[N+](=O)[O-] | 23.7 |
| CC(C)CCC(CC(C)O)C(=O)NNC(=S)Nc1ccccc1 (centres unmarked) | 6.2 |
| c1coc(-c2ccnc3nc(-n4cccc4)nn23)c1 | -4.64 |
| S=C(NCCc1ccc(Cl)cc1)NC1CCCC1 | 17.4 |
| CCOC(=O)c1c(NC(=O)CSc2nc3nc(C)cc(C)n3n2)sc(CC)c1C | 17.2 |
| CCN(C(=O)CSc1cc(C)c2ccccc2n1)C1CCS(=O)(=O)C1 (centres unmarked) | 3.09 |
| CN1CCC(N(C)C(=O)c2sc3cc(F)ccc3c2Cl)CC1 | -47.9 |
| Cc1c(C=O)c2ccccc2n1CC(=O)NCc1ccc2c(c1)OCO2 | 21.8 |
| Cc1nc(-c2ccc(S(=O)(=O)Nc3ccc(Br)cc3Cl)s2)cs1 | 13.9 |
| Cc1cnc(C(=O)OCC(=O)Nc2sc3c(c2C(N)=O)CCCC3)cn1 | 1.13 |
| CC1CCCN(C(=O)COC(=O)C2CCN(S(=O)(=O)c3ccc4c(c3)OCCO4)CC2)C1 (centres unmarked) | -7.83 |
| O=S(=O)(NN=C1CCCCCC1)c1ccc(Cl)cc1 | 14.7 |
| CCOC(=O)CN(C(=O)CSc1nnc(COc2ccc(OC)cc2)n1CC)c1ccccc1 | -22 |
| Cc1cc(=O)oc2cc(OCc3cc4c(cc3Cl)OCO4)ccc12 | 8.74 |
| Cc1ccc(C(=O)Cn2nnc3ccccc32)cc1 | 4.99 |
| O=C1C(Cl)=C(NCC2CCCO2)C(=O)N1c1cccc(Cl)c1Cl (centres unmarked) | -18.4 |
| O=C(COc1ccc(S(=O)(=O)Nc2ccccc2)cc1)NCc1cccnc1 | 0.109 |
| Cc1c(CC(=O)N2CCC(C(N)=O)CC2)c(=O)oc2cc3c(cc12)CCC1(CCCCC1)O3 | -10.9 |
| Cc1ccc(CC2C(=O)N(c3ncccn3)C(=O)C2C)cc1 (centres unmarked) | 10.4 |
| O=C(Nc1ccccc1)c1cc2n(n1)C(C(F)(F)F)CC(C1CC1)N2 (centres unmarked) | 6.72 |
| O=C(NCCN1CCOCC1)c1ccc(Cl)c(Cl)c1 | -2.39 |
| O=C(CCc1c[nH]c2ccccc12)N1CCN(S(=O)(=O)c2ccccc2)CC1 | -26.5 |
